# Source: the supplement of paper PMC3334620
# Over roughly 33,000 sequences, “E-score (-0.5 to 0.5)” has its median near -0.011; the highest 2% begin near 0.28. This is one part of the list.
# Target: T1, Gcr1 (UniProt P07261)
# T1 sequence: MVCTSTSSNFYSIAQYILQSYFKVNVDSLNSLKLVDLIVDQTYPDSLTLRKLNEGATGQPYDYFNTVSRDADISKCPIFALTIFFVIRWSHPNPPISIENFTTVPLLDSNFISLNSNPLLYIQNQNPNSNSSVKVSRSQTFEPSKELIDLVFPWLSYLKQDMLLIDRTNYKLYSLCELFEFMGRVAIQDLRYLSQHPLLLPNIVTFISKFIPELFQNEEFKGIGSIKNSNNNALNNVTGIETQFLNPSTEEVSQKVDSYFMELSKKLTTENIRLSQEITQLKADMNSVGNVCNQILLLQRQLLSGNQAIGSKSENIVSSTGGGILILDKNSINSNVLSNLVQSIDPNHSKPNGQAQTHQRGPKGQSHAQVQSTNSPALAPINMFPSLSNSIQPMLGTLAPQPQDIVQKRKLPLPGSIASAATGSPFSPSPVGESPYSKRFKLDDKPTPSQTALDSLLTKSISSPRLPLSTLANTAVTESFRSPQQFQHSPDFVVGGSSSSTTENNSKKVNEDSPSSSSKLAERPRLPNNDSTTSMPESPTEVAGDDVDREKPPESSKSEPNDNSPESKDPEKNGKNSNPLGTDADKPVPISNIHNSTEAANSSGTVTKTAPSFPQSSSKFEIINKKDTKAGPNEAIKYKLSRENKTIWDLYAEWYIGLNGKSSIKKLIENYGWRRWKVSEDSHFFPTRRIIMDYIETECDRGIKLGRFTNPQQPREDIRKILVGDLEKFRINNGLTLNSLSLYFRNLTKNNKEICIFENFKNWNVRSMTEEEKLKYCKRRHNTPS
# Assay: PBM E-score (8-mer binding enrichment) (E-score (-0.5 to 0.5)); higher = stronger / more preferred TF binding; most listed sequences are background and not binding sites
# Conditions: protein concentration: 100 nM; construct: GST-full length
# In short: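 E-scores (a modified Wilcoxon-Mann-Whitney statistic) were assigned by the Universal PBM Analysis Suite to every ungapped eight-base word pooled with its reverse complement. The input came from universal all-10-mer Agilent arrays made double-stranded by primer extension and probed with GST-tagged yeast transcription factors at about 100-200 nM. Fluorescent anti-GST detected bound protein, and masliner normalised the scans.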
row,Sequence,PBM E-score
1,CTGAGCCC,-0.028
2,CTCTCTAA,-0.179
3,CTTTCGGA,0.12
4,AGGAACGC,0.174
5,GAGCATTA,-0.0611
6,AAAGCCAG,-0.11
7,AATTCGGG,0.0184
8,AGGGTTAA,-0.18
9,CTGAGGAA,0.167
10,CTGCTATC,0.0665
11,GGTCTTGA,-0.053
12,AGCAAGTA,-0.149
13,ACCTGATG,-0.0625
14,AATGGACC,-0.059
15,ATAGTATC,-0.0723
16,GGCCGCTA,0.111
17,ACAACCCG,0.0764
18,AAAACGCA,-0.0494
19,ACATTTGC,-0.0633
20,ACAGAATG,-0.0529
21,TCTTGAAA,0.179
22,CTAGGCCA,-0.268
23,ACTGCCAG,-0.0693
24,GGTCTTAA,-0.0108
25,AACACGTG,-0.0956

row,Sequence,PBM E-score
1,CTTTGTAC,-0.121
2,ATACCCAT,-0.103
3,CAGCCAGG,-0.0672
4,CCTCTAGC,-0.206
5,ACGCCATA,0.0626
6,CCGCATGA,0.0248
7,AAGCCGCG,0.133
8,CCCCGTCC,-0.0154
9,GAGAATAC,-0.0814
10,CATGACAA,-0.187
11,CATCCTAA,0.188
12,AAATTCAA,-0.00063
13,ACACTACT,0.0294
14,CGAATCCC,0.192
15,ACACAAGC,-0.131
16,TGACTTAA,-0.0705
17,CCAACCTA,-0.114
18,CACCATAG,0.0424
19,CATAACAC,-0.0343
20,AGATGCGG,0.219
21,GGCCAAAA,0.147
22,AAGGGCGG,0.06
23,CGTACACG,0.0896
24,AGCACTCA,-0.0992
25,GACATTTA,0.0979

row,Sequence,PBM E-score
1,CATCATCA,0.0245
2,CTATCGAA,0.00373
3,AACCACCG,0.079
4,ACGCGGAA,-0.219
5,GTACTTCA,0.0121
6,ACCGTAGA,0.0351
7,CAGCTGCG,0.061
8,CATCTCAG,0.0192
9,CATGCAAA,-0.00491
10,ACGACACC,-0.114
11,CAAATGGC,0.0778
12,ACGATGAA,0.0323
13,ACCCGGTG,-0.00559
14,AACGCAGG,-0.0203
15,CCGGTATC,0.288
16,CGTTGGAC,-0.268
17,ACGGTGGC,-0.114
18,AAAGAAGA,0.184
19,GACTTGGA,-0.0352
20,GATAACCC,-0.017
21,ATTGTCCC,-0.147
22,CGGTCTGC,-0.0359
23,AATTCCAT,0.191
24,CGACGAAA,0.0264
25,GGTACGGA,-0.178

row,Sequence,PBM E-score
1,AGGGTAGA,-0.199
2,ACTGCGAA,-0.221
3,AGCTAGGC,-0.121
4,ACGTCCCA,-0.153
5,CATGTCGC,-0.00238
6,GCGCAGCA,-0.0801
7,GCTCCTAC,-0.171
8,CCAGTAAG,0.222
9,ATGACTAC,-0.116
10,CTAAGCGA,0.0817
11,GGTTGCCA,0.377
12,GCAGCGAC,0.0079
13,GGACGGAA,0.0165
14,ACAAGATA,0.102
15,CGCCAACG,-0.115
16,AGCCCCCG,-0.0643
17,ACTCTGAT,-0.0712
18,CGCGGACG,-0.192
19,GGCACAGA,-0.0983
20,AGCCGCCT,0.0597
21,CCCTTCTA,-0.0975
22,ACTGGCGC,0.247
23,CTGGTAAA,0.155
24,ATCGTTGC,-0.118
25,ATTGAACG,0.00728

row,Sequence,PBM E-score
1,AGCGTAAG,-0.209
2,AAGCAAAT,-0.156
3,AGGACCAG,-0.0937
4,ATCACGAG,-0.0737
5,CAGCCTAG,-0.0443
6,ACGCTTTG,-0.113
7,GCTATCCC,-0.262
8,CTCGTATA,0.145
9,CCTGTTCG,0.0636
10,AACTTCAT,0.0434
11,GGGATTCA,0.11
12,TGTATGAA,0.113
13,ACATCCAG,0.251
14,AGGTGAAT,-0.0767
15,CGATAGCC,-0.174
16,CCGAAAGG,0.00606
17,CACGACGG,-0.156
18,CCACCTCG,-0.214
19,AAAAGTAA,0.157
20,ACTGCCTA,0.0876
21,AAGGCGCA,-0.00493
22,AGAACCCC,0.0794
23,TAACGTCA,-0.0544
24,CTGGGGCA,0.0556
25,GTAAACGA,-0.0335

row,Sequence,PBM E-score
1,GCGAGAAA,0.0301
2,AACCGGCC,-0.196
3,GTGACTGA,0.11
4,CCAATGCA,-0.169
5,AGAGAAAC,0.181
6,GGGGGGAA,-0.27
7,GAAAGATC,-0.075
8,CTGTATGC,-0.0214
9,CAATAGGC,-0.0717
10,CAATGAGG,-0.0488
11,AGTGCTAT,-0.177
12,GAGTAACC,0.0288
13,GGAAGGTA,0.045
14,GAGGGGCA,-0.105
15,AGTGTGTG,-0.00969
16,GAGGAACC,0.318
17,CATCAATC,0.0763
18,CCGCTTGC,-0.0401
19,AACTGGAA,0.342
20,CGCCTTCA,-0.0419
21,ACTTGGCC,-0.117
22,GGTCTTAC,-0.147
23,CAGGTTCC,0.226
24,AGCTCAGA,0.0831
25,ATTGAGGC,0.147

row,Sequence,PBM E-score
1,CATGGTTC,0.062
2,CTTGTGAC,0.0438
3,CCATACCA,0.0392
4,ATGGACCG,-0.181
5,ACGCACCT,0.0718
6,AATATGGA,0.0708
7,CACCCCGC,0.201
8,ATACAGCC,-0.267
9,AACGTGTA,-0.0536
10,AAAGACGG,0.063
11,TGAATGAA,0.0885
12,CGACTTTA,0.00888
13,ATATCAGC,0.0477
14,GGGCAATA,-0.283
15,CTAGAAAG,-0.161
16,AGATACCT,0.26
17,GCGGTGTA,0.0242
18,ATTACATA,0.161
19,AGATTACT,-0.0951
20,CTAAACTC,0.0932
21,TCATTACA,0.0645
22,CTTTCTAC,0.0892
